Source: PubChem BioAssay AID1963576 (National Center for Advancing Translational Sciences (NCATS), 2024)
Out of some 46,000 compounds screened, about 60 (0.1%) were called active. Another 3% or so got no clear call; they are omitted. Calls follow the shape of the dose curve; as a rule, active = well fitted inhibition curve with a large enough effect; inconclusive = small, poorly fitted or top-dose-only effect; inactive = no such curve, though single readings can be large or run the other way. This is one part of the list.

assay: Primary qHTS assay for Inhibitors of ovarian cancer metastasis using an organotypic tumor microenvironment (TME) model.; also: nearly all actives have a fitted effect of over 65% in size;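 as to activity change, negative = inhibition: plate controls were DMSO wells for no effect and tomatine positive control wells for full effect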; conditions: SKOV3ip1-GFP adhesion/invasion on 3D omental model, fluorescence; series mostly up to 45.8 µM; activity change, negative = inhibition: at the top concentration
Summary of the method: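 Adhesion/invasion was scored as fixed GFP-labeled SKOV3ip1 cell counts (488/509 nm), normalized to DMSO and tomatine controls. Cancer cells in serum-free medium, with four compound doses (0.36-46 umol/L), sat 2 hr at RT then 16 hr at 37 C on a 48 hr fibroblast/mesothelial/ECM culture.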

outcome, inactive:
COc1ccc(CNC(=O)CCc2c(C)nn(-c3ccc(N4CCCCC4)nn3)c2C)c(OC)c1
O=C(c1cnc(N2CCCCC2)c2ccccc12)N1CCN(c2ccccc2F)CC1
CCOc1ccc(C(=O)NCCc2sc3nc(-c4ccc(Cl)cc4)nn3c2C)cc1OCC
CC(=O)N1CCc2cc(CNS(=O)(=O)c3ccc(Br)s3)ccc21
Cc1ccc2oc(-c3ccc(C)c(NC(=O)c4ccc(C(C)(C)C)cc4)c3)nc2c1
COc1cccc(CNC(=O)c2nn(-c3ccccc3Cl)nc2CO)c1
CCC(O)c1cc2c(cc1NC(=O)c1cccc(Br)c1)OCCO2 (stereo not drawn)
COc1ccc(NC(=O)Cn2cnc3sc(C)c(S(=O)(=O)N4CCN(C)CC4)c3c2=O)cc1Cl
O=C(CN1C(=O)CCc2cc(S(=O)(=O)N3CCOCC3)ccc21)Nc1cccc(Cl)c1
Cc1cccc(OC(=O)c2cc(-c3ccc4c(c3)OCCO4)on2)c1
Cc1ccc(NS(=O)(=O)c2ccc3c(c2)NC(=O)CCS3)cc1C
CCOC(=O)CNC(=O)N1CCc2cc(S(=O)(=O)N3CCC(C)CC3)ccc21
CNC(=O)C1CCC(Cn2c(=O)[nH]c3ccsc3c2=O)CC1 (stereo not drawn)
CCOC(=O)c1ccc(N2C(=O)c3n[nH]c(C)c3C2c2ccc(C(C)(C)C)cc2)cc1 (stereo not drawn)
CCN(CC)S(=O)(=O)c1ccc(C(=O)Nc2nc3c(Cl)cc(Cl)cc3s2)cc1
Cc1ccccc1CNC(=O)C1CCN(c2nnc(-n3c(C)ccc3C)s2)CC1
CCOC(=O)c1cccc(NC(=O)c2cc3cc4ccc(C)cc4nc3o2)c1
CCc1cccc(CC)c1NC(=O)C(CC)n1nc(C)n2c(cc3cc(C)ccc32)c1=O (stereo not drawn)
COc1ccc(Br)cc1CNC(=O)CSc1cc(=O)n(C)c2ccccc12
Cc1ccccc1-c1noc(-c2cc3ccccc3oc2=O)n1
Cc1ccc(-n2ncc(C(=O)Nc3ccc4c(c3)OCCO4)c2C2CCN(C(=O)OC(C)(C)C)CC2)cc1

Activity change, negative = inhibition, inactive:
Cc1ccc2c(c1)c1c(c(=O)n(Cc3ccccc3)c(=O)n1Cc1cccc(C(F)(F)F)c1)n2C 65.2%
CCCSc1oc(-c2cccs2)nc1S(=O)(=O)c1ccc(Cl)cc1 -6.66%
Cc1ccc(CNc2nc3ccccc3c3nc(-c4cccc(C)c4)nn23)cc1 3.05%
COc1ccc(Cn2c(CNS(=O)(=O)c3ccc4c(c3)CCCC4)nc3cccnc32)cc1 -4.3%
O=C(NCCc1ccc(Cl)cc1)c1ccc(Cn2c(=O)c3cccn3c3cccnc32)cc1 -35.4%
CC1CCCN(Cc2cn3c(-c4cccc(Br)c4)nnc3s2)C1 (stereo not drawn) 13%
CCCc1cc(=O)[nH]c(=S)[nH]1 -3.17%
O=C(CSC1=Nc2ccccc2N=C(c2ccc(F)cc2)C1)NCc1ccccc1 -4.59%
c1csc(C2=NC(c3ccncc3)=Nc3ccccc3N2)c1 -6.01%
Cc1ccccc1C(=O)NCc1nc2cccnc2n1Cc1ccccc1 41.9%
CC(C(=O)Nc1cc(C(F)(F)F)ccc1Cl)n1nnc2sc3c(c2c1=O)CCCC3 (stereo not drawn) 4.3%
COc1ccccc1C(=O)n1nc(-c2ccco2)nc1NCc1ccc(Cl)cc1 -20.4%
CCOc1ccccc1C(=O)Oc1c(Sc2ccccc2)c(C)nn1C(C)(C)C 3.13%
COc1ccc(S(=O)(=O)c2c(Nc3ccc(F)cc3)sc(C(=O)c3ccc4c(c3)OCO4)c2N)cc1 -1.57%
CCN1CCN(C(c2ccccc2)c2sc3nc(-c4ccco4)nn3c2O)CC1 (stereo not drawn) 1.32%
Cc1ccc(-c2csc(=Nc3ccccc3)n2Cc2ccc3c(c2)OCO3)cc1C 2.19%
COCCc1nn2c(=O)cc(COC(=O)COc3ccc(F)cc3)nc2s1 2.22%
COc1ccccc1NC(=O)c1c(NCc2ccc(C)o2)sc2c1CCC(C)C2 (stereo not drawn) -4.15%
CCCOC(=O)c1c(NC(=O)C2c3ccccc3Oc3ccccc32)sc2c1CCC(C)C2 (stereo not drawn) -2.86%
CCCSc1ncc(Cl)c(C(=O)N(Cc2ccc(N(C)C)cc2)C2CCS(=O)(=O)C2)n1 (stereo not drawn) -7.54%
N#Cc1nc(-c2ccc(COc3ccccc3)o2)oc1NCc1ccccc1 5.42%
Cc1ccc(CNC(=O)CSc2nc(=O)[nH]c3c2CCCC3)cc1 -6.46%
CN(C)CCCN(C(=O)c1cccs1)c1nc2ccc(F)cc2s1 1.48%
CC(C)C12CN3CC(C(C)C)(CN(C1)C3c1ccc(Cl)cc1)C2=O (stereo not drawn) -7.52%
COc1ccc(-c2nc3ccccc3o2)cc1NC(=O)C(C)Oc1ccc(Cl)cc1Cl (stereo not drawn) -5.65%
Cc1nc2ccccc2n1CCc1nc2c3ccccc3nc(SCC(=O)Nc3ccc(Br)cc3F)n2n1 11.5%
O=C(O)[C@H](Cc1c[nH]c2ccccc12)N1C(=O)c2ccccc2C1=O -4.68% [at 92.2 µM]
CN1CCN(c2oc(-c3ccc(COc4ccc(Cl)cc4)o3)nc2C#N)CC1 3.31%
Cc1ccccc1-n1c(/C=C/c2c(C)n(C)c3ccccc23)nc2ccccc2c1=O -6.84%
CC(C)(C)OC(=O)N1CCC(c2c(C(=O)N3CCN(c4ncccn4)CC3)cnn2-c2ccccc2)CC1 -4.84%
CCOC(=O)c1ccc(NC(=O)COCc2cc(-c3ccc4c(c3)OCO4)on2)cc1 -0.837%
CSc1ccc(CNc2ncc(-c3ccccc3)n2C)cc1 -3.54%
CCOC(=O)c1cccc(NC(=O)c2cc(CN3CCOCC3)on2)c1 -19.8%
CC(=O)Nc1c(C)nn(-c2ccccc2)c1N1CCC(C(=O)Nc2ccc(F)cc2Cl)CC1 -12.8%
Cc1cccc(NC(=O)N2CCC(CN3CCC(C)CC3)CC2)c1C -3.44%
COc1ccc2c(c1)c(=O)c(S(=O)(=O)c1ccc(Cl)cc1)cn2C 0.872%
CCCn1c(SCc2nc(-c3cc(OC)ccc3OC)no2)nnc1-c1ccc(Cl)cc1 14.6%
Cc1ccc2c(c1)C(c1ccccc1)N(C(=O)c1ccccc1F)CC(=O)N2 (stereo not drawn) 3.66%
CCOC(=O)c1c(C)[nH]c(C)c1S(=O)(=O)N1CCCC(C(=O)Nc2ccccc2OCC)C1 (stereo not drawn) 75.4%
CCCc1ccc(OC(C)C(=O)Nc2sc3c(c2C(=O)OC)CCCCC3)cc1 (stereo not drawn) 4.61%
CC1CCN(S(=O)(=O)c2ccc3c(c2)oc(=O)n3CC(=O)NC(C)c2ccccc2)CC1 (stereo not drawn) 2.51%
Cc1ccc(-c2nc(CS(=O)(=O)CC(=O)N3CCN(c4cccc(C)c4C)CC3)c(C)o2)cc1 -0.411%
